The source gives no read counts; variants with many changes may rest on few reads.

The chains are these.
B1: OR4K15 (parent)
chain: GUUAACGGUCAUAGGCCAUGGAAACUAGGAGCACCAUUUCGCUGCCAGUGAAGAAAUGAACAAAGAAAAUCUGGGCCAGGCAGGCAUCAAAAGAAAUAGUCUUGCGCUCAACCAGAAAGUCUGUAAUCAUUUUAAGGGUA

Variants of B1 are the subject of the data set. As to the kind of experiment: self-cleavage, relative activity (ratio to wild type); higher = more cleavage; in vitro, sequencing; the parent is a self-cleaving ribozyme.
For the variant U97C A111G G136A, the self-cleavage is 0.03.
The value for A91G C101U A116G A140U was 0.17; that for A90C U102C A110U U131C was 1.39.
The value for A89U U102C A129U was 1.88.
The value for A89U G106A A110G was 0.01.
With A94G A129U A135G, the self-cleavage stood at 0.95.
The value for U102A U103C A114U was 0.01; that for A91G U127A A135G was 2.29.
The value for A89U A98U U102C was 2.33.
A96G U100C A126U: the self-cleavage was determined as 1.78.
The value for A96U A117G U131C A140G was 0.25; that for A89G A92G A94G A118U was 0.22; that for U103C U108C A111G was 0.
The value for A90U A96G U120C was 1.16; that for U102C A110G U130C was 0.12; that for A92G A117G U122A was 2.19.
The value for U100C U122C U127A was 2.4; that for A95G A111G A140G was 0.01; that for A111G A118U U122C U124C was 0.01.
Regarding A94G A126G U130G, the self-cleavage is 0.28.
The value for A114G U122C U130C was 0.03; that for A91G A95G U97A was 0.75; that for U120C U122C A129G was 0.46.
The value for A89G A116G A126G was 0.34; that for U103C C113U A135U was 0.05; that for G93U A118G U132C was 1.85.
The value for A90G A92U A118U A126G was 0.26; that for A89U A94G A116G was 0.98; that for A91G A92U U97C was 0.35.
Consider U100C A114U A116G A117U, for which the self-cleavage was found to be 0.13.
Regarding A90G A111G A118U, the self-cleavage is 0.
The value for A91G A94G U103G A111G was 0.03; that for A90G A91G U124C was 0.34; that for A92G A116G A118G was 0.33.
The value for A98G U102C A117G was 1.79; that for A110G A117G A126G was 0.13.
As to A92G C109U A117C A126G U130G, the self-cleavage came to 0.03.
Regarding U102C A111G A117G, the self-cleavage was determined as 0.01.
Take A94G G119A U127C: the self-cleavage stood at 1.49.
A95G U124C U127C A135G: the self-cleavage was 1.08.
The value for U108C U120C U122C was 0; that for A98G U122C A140G was 0.45; that for U120G U122C A135G was 0.95.
The value for U124C U131C A140G was 0.03; that for A90G A91G U108G A110U was 0.
Turning to U102C A118G U122G A126G, the self-cleavage came out at 2.78.
The value for U108C U120C U127C was 0.01; that for A89U A94G U100C was 0.64.
The value for A95G U102A A116G U133C was 1.28.
A89G A95U U127A: the self-cleavage turned out to be 2.6.
The value for A91G G106A A129G was 0.01; that for A95G U122C A126G was 1; that for A89G A94C A110U was 1.17.
Take A94G A98G U132C: the self-cleavage was found to be 0.54.
The value for A91G U108A A116G was 0.01; that for A92G U108C A129G was 0; that for A89G U102A U130C A135G A140G was 0.53.
The value for A96G U102A U103C U108A A111G A114G was 0; that for A117G A129G G137A was 1.04; that for A110C A111G A116G U132A A135C was 0.
As to A94G A118G U131C, the self-cleavage is 0.44.
On to A94G A110G A116G, for which the self-cleavage is 0.02.
The value for A116G U122C U131C was 0.27.
The value for U100C U103C U120C U122A was 1.66; that for A114U A129G U131C was 0.
The value for U102C A116G A129G was 0.42; that for A89U A117G U127C was 1.19; that for U103C A110G A117G U122C was 0.01.
Turning to U102C A116G U130C, the self-cleavage was 0.97.
Consider U100C U124C A140U, for which the self-cleavage came out at 1.6.
The value for A92G A116G U131C was 0.26; that for A90G A98G A117C was 0.35; that for U97C A98U A135U was 0.69.
The value for U102C U108C A114U A116G was 0.01; that for A96G A111G A140G was 0.03.
The value for A90G U102C A129G was 2.26.
On to U108C U127C U132C, for which the self-cleavage was determined as 0.
On to A110G U130C U131C, for which the self-cleavage is 0.04.
As to A91G U122A A129G G136U, the self-cleavage stood at 0.3.
The value for A89C U102G U131C was 0.2; that for A89C U100C U102C was 1.01.
The value for A118G U122C U130C was 0.57.
The value for A96G G106A A114G was 0.01.
As for A95G U103C A126G U132A, the self-cleavage amounted to 1.16.
The value for A90G A92G A95C was 0.59.
The value for A96G A114G U132C was 0.15; that for U102A U122C A135U was 0.74; that for A91U U120C A134G was 0.74.
The value for U97C U103C U108C was 0; that for A91G A114U A116G was 0.01.
Regarding A89G A125G U130G A140G, the self-cleavage was determined as 0.09.
The value for A96G A111G A118G C128U was 0.02.
The value for A92C A111U A126U was 0.05; that for U102C C113U U139C was 0.05; that for A92G C101U U133C was 0.49.
Take A96G C105U U120C: the self-cleavage is 0.04.
For the variant U120A U131C A135G, the self-cleavage was determined as 1.99.
Regarding A90G A94G A111U A126U, the self-cleavage came to 0.09.
The value for A126G U130C A140G was 0.25.
The value for A92G A95G A98U was 2.71; that for A92G A98G U127C was 0.2.
The value for U108C A111U U124C was 0; that for U103C A111G A114U A116G A125G was 0.
On to A111G A114G A118G A129G, for which the self-cleavage stood at 0.
The value for U102C U122C A135G was 1.42.
The value for U97A U122C U139G was 1.31; that for U97A A111G U131C was 0.01; that for A110G G123A U124C was 0.16.
The value for A91G U97C U124A A126G was 0.36.
As to A110G A114G U139C, the self-cleavage was determined as 0.05.
In the case of A91G U122C U124A, the self-cleavage is 0.18.
The value for A90U U97A A117G was 2.93.
The value for A89U C113A A117G U127A was 0.02.
The value for A96C U100G U122G was 2.22.
Take A94U U100A U122C: the self-cleavage amounted to 0.71.
The value for A92G A94G U102C was 1.07; that for A91G A96G U108A was 0.01.
The value for G119A A129G U130C was 1.92; that for A90G U97C A111G U131C was 0.
The value for A92G U102G A129C was 0.12.

The record behind these values is the RNAGym collection of RNA variant scans (doi:10.7554/elife.90254).
